For some of these results: At least one peptide structure holds a part that was inferred or is arguable (an end, a ring closure or a residue). Some compounds share one wording; it may come from a single statement. For some of these results: For at least one compound, name, drawing or mass did not settle the structure. No end group written: not given here.
What was measured:
[1] = Intraperitoneal administration of partial peptides of nesfatin-1M30 (M16, M14, M10M) in mice, amount of food intake; type: in vivo; conditions: ICR mice; 10 pmol per 100 µl intraperitoneal; 0-3 hours; vs physiological saline
[2] = Intraperitoneal administration of partial peptides of nesfatin-1 (N23, M30, C29) in mice, amount of food intake; type: in vivo; conditions: ICR mice; 50 nmol intraperitoneal; 0-3 hours; vs physiological saline (Vehicle)
[3] = Intraperitoneal administration of human nesfatin-1M30 and mouse NUCB1-M30 in mice, amount of food intake; type: in vivo; conditions: ICR mice; 10 pmol per 100 µl intraperitoneal; 0-3 hours; vs physiological saline (Vehicle)
[4] = test system: nesfatin polypeptide; assay: Immunohistochemical stain of rat medulla oblongata with anti-NAP antibody after pre-reaction with NAP peptide; type: binding; conditions: NAP peptide 100 µg/ml added to antibody 1 µg/ml, room temperature, 1 hour
[5] = test system: NEFA gene; assay: Induction of NEFA gene expression by troglitazone in HTB185 cells (Northern blotting); type: cell-based, human; conditions: 10^-4 M troglitazone, 48 hours, vs cells not stimulated
[6] = test system: NEFA gene; assay: Induction of NEFA gene expression by troglitazone in SQ-5 cells (Northern blotting); type: cell-based, human; conditions: 10^-4 M TGZ, 24 hours, vs cells not stimulated
[7] = Troglitazone in food for 10 days in normal and Zucker fa/fa rats: body weight; type: in vivo, Zucker fa/fa (Zucker) rats and Zucker +/+ (Lean) rats; conditions: 0.2% troglitazone in the powder food, vs troglitazone-free food
[8] = test system: leptin; assay: Troglitazone in food for 10 days in normal and Zucker fa/fa rats: leptin concentration in the blood (ELISA); type: in vivo, Zucker fa/fa (Zucker) rats and Zucker +/+ (Lean) rats; conditions: 0.2% troglitazone in the powder food, p<0.05
[9] = test system: nesfatin; assay: Troglitazone in food for 10 days in normal and Zucker fa/fa rats: amount expressed of nesfatin in the brain (Western blotting); type: in vivo, Zucker fa/fa (Zucker) rats and Zucker +/+ (Lean) rats; conditions: 0.2% troglitazone in the powder food
[10] = test system: nesfatin; assay: Binding specificity of anti-nesfatin-1 antibody: Western blotting of rat brain extracts after pre-reaction with peptides; conditions: 5 µg peptide per 1 µg anti-nesfatin-1 antibody, room temperature, 1 hour
Description: Western blotting analysis was carried out by the method described in Working Example 3 with the primary antibody being changed from anti-NAP polyclonal antibody to anti-nesfatin-1 antibody.

**Q.** With VLETDPHFREKLQK [nesfatin-1M14] as the compound, how does the “amount of food intake” value [1] read?
**A.** significant effect of suppressing food intake

**Q.** Which “amount of food intake” value [2] does the source give for “PDTGLYYDEYLKQVIEVLETDPHFREKLQK [nesfatin-1M30]” here?
**A.** significant decrease

**Q.** And the “amount of food intake” value [3]?
**A.** significant effect of suppressing food intake

**Q.** Which “amount of food intake” value [3] does the source give for “PDTGLYYHRYLQEVINVLETDGHFREKLQA [mouse NUCB1-M30]” here?
**A.** significant effect of suppressing food intake

**Q.** For KQVIEVLETD [nesfatin-1M10M], which “amount of food intake” value [1] is on record?
**A.** significant effect of suppressing food intake

**Q.** For HLNHQNPDTFESC [NAP peptide], which “immunohistochemical stain at the nucleus of solitary tract after pre-reaction of anti-NAP antibody with the peptide” value [4] is on record?
**A.** disappeared

**Q.** With PDTGLYYDEYLKQVIE [nesfatin-1M16] as the compound, how does the “amount of food intake” value [1] read?
**A.** significant effect of suppressing food intake

**Q.** Which results are given for Cc1c(C)c2c(c(C)c1O)CCC(C)(COc1ccc(CC3SC(=O)NC3=O)cc1)O2 (stereo not shown) [troglitazone]?
**A.** NEFA gene expression [5]: marked induction; NEFA gene expression [6]: marked induction of expression of the NEFA gene; body weight ([7]; Zucker fa/fa rats): no marked difference in body weight; body weight ([7]; normal rats (Lean)): no marked difference in body weight; concentration of leptin in the blood ([8]; Zucker fa/fa rats): significantly decreased; concentration of leptin in the blood ([8]; normal rats (Lean)): significantly decreased; amount expressed of nesfatin in the brain ([9]; Zucker fa/fa rats, p<0.01): significantly increased; amount expressed of nesfatin in the brain ([9]; normal rats (Lean), vs troglitazone-free food): no difference in the amount expressed of nesfatin in the brain

**Q.** Which “amount of food intake” value [2] does the source give for VPIDVDKTKVHNTEPVENARIEP [nesfatin-1N23] here?
**A.** no significant decrease or enhancement

**Q.** Which “47.5 kd band of nesfatin in Western blotting after pre-reaction of anti-nesfatin-1 antibody with the peptide” value [10] does the source give for PDTGLYYDEYLKQVIC [NAP1-Ab] here?
**A.** disappeared

**Q.** For “ADIEEIRSGRLSQELDLVSHKVRTRLDEL [nesfatin-1C29]”, which “amount of food intake” value [2] is on record?
**A.** no significant decrease or enhancement

**Q.** For “PDTGLYYDEYLKQVIDVLETDKHFREKLQK [human nesfatin-1M30]”, which “amount of food intake” value [3] is on record?
**A.** significant effect of suppressing food intake
